SMILES strings stand for the structures. In all, about 110,000 compounds were measured (“z-score”: median about -0.1, highest 2% from about 2 on). The list shows a part of the results.

This test has as its target Metabotropic glutamate receptor 8 (Rattus norvegicus) (UniProt P70579). Description: rat mGluR8 modulators via GIRK flux, primary screen, cell-based, thallium flux, HTS (AID 488969). Conditions: HEK293 rat mGluR8, GIRK (G protein-gated inwardly rectifying potassium channel) thallium flux, FluoZin2; at 10 µM; stronger effect = higher value; submaximal glutamate (EC20) added with thallium.
Chain of UniProt P70579 (P70579 whole entry, looked up): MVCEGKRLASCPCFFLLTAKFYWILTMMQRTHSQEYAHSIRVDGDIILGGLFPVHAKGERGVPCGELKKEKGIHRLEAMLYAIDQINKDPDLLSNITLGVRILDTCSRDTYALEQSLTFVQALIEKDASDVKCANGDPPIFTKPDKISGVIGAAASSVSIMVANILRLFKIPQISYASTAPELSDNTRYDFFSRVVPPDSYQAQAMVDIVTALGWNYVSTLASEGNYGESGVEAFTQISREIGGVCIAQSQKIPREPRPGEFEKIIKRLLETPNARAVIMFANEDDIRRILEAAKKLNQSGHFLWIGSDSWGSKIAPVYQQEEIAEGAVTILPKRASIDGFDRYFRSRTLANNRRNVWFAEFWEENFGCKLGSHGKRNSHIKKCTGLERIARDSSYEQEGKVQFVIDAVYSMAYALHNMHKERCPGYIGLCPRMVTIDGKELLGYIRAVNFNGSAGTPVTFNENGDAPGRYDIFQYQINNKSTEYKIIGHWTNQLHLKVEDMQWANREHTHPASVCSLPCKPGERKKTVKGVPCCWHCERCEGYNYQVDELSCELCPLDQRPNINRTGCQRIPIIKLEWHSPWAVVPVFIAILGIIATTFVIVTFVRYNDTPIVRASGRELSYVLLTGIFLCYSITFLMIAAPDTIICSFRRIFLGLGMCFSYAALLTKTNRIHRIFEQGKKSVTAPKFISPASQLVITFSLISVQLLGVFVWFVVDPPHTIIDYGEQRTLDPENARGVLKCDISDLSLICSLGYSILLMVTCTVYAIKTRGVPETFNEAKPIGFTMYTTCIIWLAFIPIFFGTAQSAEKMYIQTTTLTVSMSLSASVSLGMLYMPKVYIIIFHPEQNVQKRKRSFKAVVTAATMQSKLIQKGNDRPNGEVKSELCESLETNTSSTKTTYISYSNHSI
Consider `O=C(O)C1CCCN1S(=O)(=O)c1ccc(Br)s1` (stereo unspecified) (tested in a mixture with another compound), for which the z-score came to 0.764.
Consider `CCOC(=O)c1[nH]c(C)c(CCC(=O)OC)c1C`, for which the z-score came to 0.104.
The value for `CCc1nnc(NC(=O)CCC(=O)N2CCN(Cc3ccccc3)CC2)s1` was 0.363; that for `CC(C)(C)C1=Nn2c(nnc2-c2n[nH]c3c2CCC3)SC1` was 0.964; that for `COc1ccc(O)c(-c2cc(C(F)(F)C(F)F)nc(-c3ccccc3)n2)c1` was -0.115.
The value for `CCOc1ccc(NC2=NCC(=O)N2Cc2cccs2)cc1` was -1.01; that for `COc1ccc2c(C(=O)CN3CCC(C)CC3)c[nH]c2c1` was 0.0332.
`O=C1CC(SCc2nc3ccccc3[nH]2)C(=O)N1c1cccc(F)c1` (stereo unspecified) displayed a z-score of -0.0666.
In the case of `CC(=O)Nc1ccccc1OCC(=O)c1ccc2c(c1)OCO2` it was 2.07; in that of `O=C(NCc1ccc(Cl)cc1)c1cccc(NC(=O)c2ccccc2)c1`, -0.315; in that of `COc1cccc(-n2nc(-c3ccnn3-c3ccc(F)cc3)c(=O)n(C)c2=O)c1`, -0.33.
The value for `COc1ccccc1C(=O)Nc1ccccc1N1CCOCC1` was -0.0371; that for `COC(=O)C(C(=O)Nc1cc(C)on1)C1CCCCCC1` (stereo unspecified) was -0.152; that for `CC(C)CN1C(=O)c2ccc(C(=O)Nc3nccs3)cc2C1=O` was -0.176.
`O=C(O)c1nc(-c2ccccc2)n(-c2ccc(Cl)cc2)n1` showed a z-score of -0.161.
For `Cc1ccccc1N1CC(c2nc3ccccc3[nH]2)CC1=O` (stereo unspecified), the z-score is -0.158.
In the case of `CN(CCc1ccccn1)C(=O)CCNC(=O)Cn1cnc2ccccc2c1=O` it was 0.117.
The value for `Cc1ccc(C(=O)N2CCC(C(N)=O)CC2)cc1C` was -0.31; that for `O=C(NCCCN1CCCC1=O)c1ccc(OCc2ccccc2)cc1` was -0.158.
As for `CCCCCOC(=O)Cc1c(O)c2ccccc2n(C)c1=O`, the z-score came out at 0.588.
With `COC(=O)c1cccc(NC(=O)Cn2nnc3ccccc32)c1`, the z-score was -0.317.
In the case of `C=CCSC1=C(C#N)C(c2ccccc2Cl)CC(=O)N1` (stereo unspecified) it was -2.04; in that of `CCOC(=O)c1[nH]c2ccc(Br)cc2c1NC(=O)CCN1CCC(C(=O)OCC)CC1`, -0.0231.
In the case of `COc1ccc(S(=O)(=O)N2CCCCCC2)cc1N(C)S(=O)(=O)c1ccc(C)cc1`, the z-score was -0.0674.
In turn, `COC(=O)COc1ccc(NC(=O)C2CCCO2)cc1` (stereo unspecified) displayed a z-score of -0.0331.
Take `Cc1ccc(NC(=O)CCC(=O)NCCO)cc1`: the z-score is -0.739.
The value for `O=C(CN(c1ccc2c(c1)OCCO2)S(=O)(=O)c1ccccc1)Nc1ccc2c(c1)OCO2` was -0.293; that for `CS(=O)(=O)N(CC(=O)N1CCCCC1)Cc1ccc(Cl)cc1` was -0.185.
In the case of `c1cnc(NC2CCCCCC2)nc1` it was -0.209.
The compound `Cn1c(=O)c2c(nc(NCC3CCCO3)n2Cc2cccc(Br)c2)n(C)c1=O` (stereo unspecified) registered a z-score of -0.125.
Consider `O=C(Cn1c(=O)oc2cc(S(=O)(=O)NCc3ccccc3)ccc21)NCc1ccco1`, for which the z-score is -0.387.
